# Results published in the supplement of paper PMC8728848.
# This is one part of the list.
# B1: MGL1 (Mus musculus), P49300 (protein)
# chain: MIYENLQNSRIEEKTQEPGKAPSQSFLWRILSWTHLLLFSLGLSLLLLVVVSVIGSQNSQLRRDLGTLRATLDNTTSKIKAEFQSLDSRADSFEKGISSLKVDVEDHRQELQAGRDLSQKVTSLESTVEKREQALKTDLSDLTDHVQQLRKDLKALTCQLANLKNNGSEVACCPLHWTEHEGSCYWFSESEKSWPEADKYCRLENSHLVVVNSLEEQNFLQNRLANVVSWIGLTDQNGPWRWVDGTDFEKGFKNWAPLQPDNWFGHGLGGGEDCAHITTGGPWNDDVCQRTFRWICEMKLAKES
# Experiments:
# Test in all cases: glycan array binding signal (z-score within array); higher = stronger binding
# Settings in all cases: glycan notation: IUPAC condensed, linker removed
# [1] = molecular target: Neu5Ac(a2-3)Gal(b1-4)GlcNAc(b1-3)GalNAc
# Procedure, shortened: (§1)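 The binding signal is a Z-score computed within each array. Data were drawn from 3228 arrays in the Consortium for Functional Glycomics database, restricted to those with a known protein sequence. Scores were averaged over arrays of the same protein sequence at different concentrations or buffers, and over linkers, and negative values can be taken as non-binding.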
# [2] = molecular target: Neu5Ac(a2-3)Gal(b1-4)GlcNAc(b1-3)[Neu5Ac(a2-3)Gal(b1-4)GlcNAc(b1-6)]GalNAc
# Procedure, shortened: as §1
# [3] = molecular target: Neu5Ac(a2-3)Gal(b1-4)GlcNAc(b1-6)GalNAc
# Procedure, shortened: as §1
# [4] = molecular target: Neu5Ac(a2-3)Gal(b1-4)GlcNAc(b1-6)[Gal(b1-3)]GalNAc
# Procedure, shortened: as §1
# [5] = molecular target: Neu5Ac(a2-3)Gal(b1-4)GlcNAc(b1-6)[Neu5Ac(a2-3)Gal(b1-3)]GalNAc
# Procedure, shortened: as §1
# [6] = molecular target: Neu5Ac(a2-3)Gal(b1-4)GlcNAc6S
# Procedure, shortened: as §1
# [7] = molecular target: Neu5Ac(a2-3)Gal(b1-4)[Fuc(a1-3)]GlcNAc
# Procedure, shortened: as §1
# [8] = molecular target: Neu5Ac(a2-3)Gal(b1-4)[Fuc(a1-3)]GlcNAc(b1-2)Man
# Procedure, shortened: as §1
# [9] = molecular target: Neu5Ac(a2-3)Gal(b1-4)[Fuc(a1-3)]GlcNAc(b1-3)Gal
# Procedure, shortened: as §1
# [10] = molecular target: Neu5Ac(a2-3)Gal(b1-4)[Fuc(a1-3)]GlcNAc(b1-3)Gal(b1-4)GlcNAc
# Procedure, shortened: as §1
# [11] = molecular target: Neu5Ac(a2-3)Gal(b1-4)[Fuc(a1-3)]GlcNAc(b1-3)Gal(b1-4)[Fuc(a1-3)]GlcNAc(b1-3)Gal(b1-4)[Fuc(a1-3)]GlcNAc
# Procedure, shortened: as §1
# [12] = molecular target: Neu5Ac(a2-3)Gal(b1-4)[Fuc(a1-3)]GlcNAc(b1-3)GalNAc
# Procedure, shortened: as §1
# [13] = molecular target: Neu5Ac(a2-3)Gal(b1-4)[Fuc(a1-3)]GlcNAc(b1-6)[Gal(b1-3)]GalNAc
# Procedure, shortened: as §1
# [14] = molecular target: Neu5Ac(a2-3)Gal(b1-4)[Fuc(a1-3)]GlcNAc(b1-6)[Neu5Ac(a2-3)Gal(b1-3)]GalNAc
# Procedure, shortened: as §1
# [15] = molecular target: Neu5Ac(a2-3)Gal(b1-4)[Fuc(a1-3)]GlcNAc6S
# Procedure, shortened: as §1
# [16] = molecular target: Neu5Ac(a2-3)Gal6S(b1-4)GlcNAc
# Procedure, shortened: as §1
# [17] = molecular target: Neu5Ac(a2-3)Gal6S(b1-4)[Fuc(a1-3)]GlcNAc
# Procedure, shortened: as §1
# Neu5Ac(a2-3)GalNAc = molecular target: Neu5Ac(a2-3)GalNAc
# Procedure, shortened: as §1
# [18] = molecular target: Neu5Ac(a2-3)GalNAc(b1-4)GlcNAc
# Procedure, shortened: as §1
# [19] = molecular target: Neu5Ac(a2-3)[GalNAc(b1-4)]Gal(b1-4)Glc
# Procedure, shortened: as §1
# [20] = molecular target: Neu5Ac(a2-3)[GalNAc(b1-4)]Gal(b1-4)GlcNAc
# Procedure, shortened: as §1
# [21] = molecular target: Neu5Ac(a2-3)[GalNAc(b1-4)]Gal(b1-4)GlcNAc(b1-3)GalNAc
# Procedure, shortened: as §1
# [22] = molecular target: Neu5Ac(a2-3)[Neu5Ac(a2-6)]GalNAc
# Procedure, shortened: as §1
# Neu5Ac(a2-6)Gal = molecular target: Neu5Ac(a2-6)Gal
# Procedure, shortened: as §1
# [23] = molecular target: Neu5Ac(a2-6)Gal(b1-3)GlcNAc(b1-3)[Gal(b1-4)GlcNAc(b1-6)]Gal(b1-4)Glc
# Procedure, shortened: as §1
# Neu5Ac(a2-6)Gal(b1-4)Glc = molecular target: Neu5Ac(a2-6)Gal(b1-4)Glc
# Procedure, shortened: as §1
# [24] = molecular target: Neu5Ac(a2-6)Gal(b1-4)GlcNAc
# Procedure, shortened: as §1
# [25] = molecular target: Neu5Ac(a2-6)Gal(b1-4)GlcNAc(b1-2)Man
# Procedure, shortened: as §1
# [26] = molecular target: Neu5Ac(a2-6)Gal(b1-4)GlcNAc(b1-2)Man(a1-3)Man(b1-4)GlcNAc(b1-4)GlcNAc
# Procedure, shortened: as §1
# [27] = molecular target: Neu5Ac(a2-6)Gal(b1-4)GlcNAc(b1-2)Man(a1-3)[Gal(b1-4)GlcNAc(b1-2)Man(a1-6)]Man(b1-4)GlcNAc(b1-4)GlcNAc
# Procedure, shortened: as §1
# [28] = molecular target: Neu5Ac(a2-6)Gal(b1-4)GlcNAc(b1-2)Man(a1-3)[GlcNAc(b1-2)Man(a1-6)]Man(b1-4)GlcNAc(b1-4)GlcNAc
# Procedure, shortened: as §1
# [29] = molecular target: Neu5Ac(a2-6)Gal(b1-4)GlcNAc(b1-2)Man(a1-3)[GlcNAc(b1-4)][Neu5Ac(a2-6)Gal(b1-4)GlcNAc(b1-2)Man(a1-6)]Man(b1-4)GlcNAc(b1-4)GlcNAc
# Procedure, shortened: as §1
# [30] = molecular target: Neu5Ac(a2-6)Gal(b1-4)GlcNAc(b1-2)Man(a1-3)[Man(a1-6)]Man(b1-4)GlcNAc(b1-4)GlcNAc
# Procedure, shortened: as §1
# [31] = molecular target: Neu5Ac(a2-6)Gal(b1-4)GlcNAc(b1-2)Man(a1-3)[Neu5Ac(a2-3)Gal(b1-4)GlcNAc(b1-2)Man(a1-6)]Man(b1-4)GlcNAc(b1-4)GlcNAc
# Procedure, shortened: as §1
# [32] = molecular target: Neu5Ac(a2-6)Gal(b1-4)GlcNAc(b1-2)Man(a1-3)[Neu5Ac(a2-6)Gal(b1-4)GlcNAc(b1-2)Man(a1-6)]Man(b1-4)GlcNAc(b1-4)GlcNAc
# Procedure, shortened: as §1
# [33] = molecular target: Neu5Ac(a2-6)Gal(b1-4)GlcNAc(b1-2)Man(a1-3)[Neu5Ac(a2-6)Gal(b1-4)GlcNAc(b1-2)Man(a1-6)]Man(b1-4)GlcNAc(b1-4)[Fuc(a1-6)]GlcNAc
# Procedure, shortened: as §1
# [34] = molecular target: Neu5Ac(a2-6)Gal(b1-4)GlcNAc(b1-2)Man(a1-6)Man(b1-4)GlcNAc(b1-4)GlcNAc
# Procedure, shortened: as §1
# [35] = molecular target: Neu5Ac(a2-6)Gal(b1-4)GlcNAc(b1-2)Man(a1-6)[Gal(b1-4)GlcNAc(b1-2)Man(a1-3)]Man(b1-4)GlcNAc(b1-4)GlcNAc
# Procedure, shortened: as §1
# [36] = molecular target: Neu5Ac(a2-6)Gal(b1-4)GlcNAc(b1-2)Man(a1-6)[GlcNAc(b1-2)Man(a1-3)]Man(b1-4)GlcNAc(b1-4)GlcNAc
# Procedure, shortened: as §1
# [37] = molecular target: Neu5Ac(a2-6)Gal(b1-4)GlcNAc(b1-2)Man(a1-6)[Man(a1-3)]Man(b1-4)GlcNAc(b1-4)GlcNAc
# Procedure, shortened: as §1
# [38] = molecular target: Neu5Ac(a2-6)Gal(b1-4)GlcNAc(b1-2)[Neu5Ac(a2-6)Gal(b1-4)GlcNAc(b1-4)]Man(a1-3)[GlcNAc(b1-4)][Neu5Ac(a2-6)Gal(b1-4)GlcNAc(b1-2)[Neu5Ac(a2-6)Gal(b1-4)GlcNAc(b1-6)]Man(a1-6)]Man(b1-4)GlcNAc(b1-4)GlcNAc
# Procedure, shortened: as §1
# [39] = molecular target: Neu5Ac(a2-6)Gal(b1-4)GlcNAc(b1-2)[Neu5Ac(a2-6)Gal(b1-4)GlcNAc(b1-4)]Man(a1-3)[GlcNAc(b1-4)][Neu5Ac(a2-6)Gal(b1-4)GlcNAc(b1-4)Man(a1-6)]Man(b1-4)GlcNAc(b1-4)GlcNAc
# Procedure, shortened: as §1
# [40] = molecular target: Neu5Ac(a2-6)Gal(b1-4)GlcNAc(b1-2)[Neu5Ac(a2-6)Gal(b1-4)GlcNAc(b1-6)]Man(a1-6)[Neu5Ac(a2-6)Gal(b1-4)GlcNAc(b1-2)Man(a1-3)][GlcNAc(b1-4)]Man(b1-4)GlcNAc(b1-4)GlcNAc
# Procedure, shortened: as §1
# [41] = molecular target: Neu5Ac(a2-6)Gal(b1-4)GlcNAc(b1-3)Gal(b1-3)GlcNAc
# Procedure, shortened: as §1
# [42] = molecular target: Neu5Ac(a2-6)Gal(b1-4)GlcNAc(b1-3)Gal(b1-4)GlcNAc
# Procedure, shortened: as §1
# [43] = molecular target: Neu5Ac(a2-6)Gal(b1-4)GlcNAc(b1-3)Gal(b1-4)GlcNAc(b1-2)Man(a1-3)[Neu5Ac(a2-6)Gal(b1-4)GlcNAc(b1-3)Gal(b1-4)GlcNAc(b1-2)Man(a1-6)]GalNAc
# Procedure, shortened: as §1
# [44] = molecular target: Neu5Ac(a2-6)Gal(b1-4)GlcNAc(b1-3)Gal(b1-4)GlcNAc(b1-3)Gal(b1-4)GlcNAc
# Procedure, shortened: as §1
binder,measurement,setting,value
B1,glycan array binding signal (z-score),[1],-0.537
same,glycan array binding signal (z-score),[2],-0.652
same,glycan array binding signal (z-score),[3],-0.057
same,glycan array binding signal (z-score),[4],-0.174
same,glycan array binding signal (z-score),[5],-0.418
same,glycan array binding signal (z-score),[6],0.083
same,glycan array binding signal (z-score),[7],-0.048
same,glycan array binding signal (z-score),[8],-0.66
same,glycan array binding signal (z-score),[9],0.179
same,glycan array binding signal (z-score),[10],-0.1
same,glycan array binding signal (z-score),[11],0.048
same,glycan array binding signal (z-score),[12],0.42
same,glycan array binding signal (z-score),[13],-0.246
same,glycan array binding signal (z-score),[14],-0.389
same,glycan array binding signal (z-score),[15],-0.064
same,glycan array binding signal (z-score),[16],0.985
same,glycan array binding signal (z-score),[17],-0.382
same,glycan array binding signal (z-score),Neu5Ac(a2-3)GalNAc,-0.228
same,glycan array binding signal (z-score),[18],-0.306
same,glycan array binding signal (z-score),[19],0.064
same,glycan array binding signal (z-score),[20],-0.489
same,glycan array binding signal (z-score),[21],-0.453
same,glycan array binding signal (z-score),[22],-0.765
same,glycan array binding signal (z-score),Neu5Ac(a2-6)Gal,1.09
same,glycan array binding signal (z-score),[23],0.811
same,glycan array binding signal (z-score),Neu5Ac(a2-6)Gal(b1-4)Glc,-0.436
same,glycan array binding signal (z-score),[24],-0.233
same,glycan array binding signal (z-score),[25],-0.595
same,glycan array binding signal (z-score),[26],0.39
same,glycan array binding signal (z-score),[27],-0.799
same,glycan array binding signal (z-score),[28],-0.089
same,glycan array binding signal (z-score),[29],-0.48
same,glycan array binding signal (z-score),[30],-0.67
same,glycan array binding signal (z-score),[31],-0.988
same,glycan array binding signal (z-score),[32],-0.261
same,glycan array binding signal (z-score),[33],-0.696
same,glycan array binding signal (z-score),[34],-0.687
same,glycan array binding signal (z-score),[35],-0.486
same,glycan array binding signal (z-score),[36],-0.274
same,glycan array binding signal (z-score),[37],-0.424
same,glycan array binding signal (z-score),[38],-0.515
same,glycan array binding signal (z-score),[39],0.035
same,glycan array binding signal (z-score),[40],-0.446
same,glycan array binding signal (z-score),[41],-0.692
same,glycan array binding signal (z-score),[42],-0.601
same,glycan array binding signal (z-score),[43],0.747
same,glycan array binding signal (z-score),[44],-0.412
